Results: a compilation of properties of binary mixtures (doi:10.1021/ie303238h)
The densities may have been worked out from excess volumes.

Assay: xn = mol fraction of the nth substance listed
Conditions: 298.15 K, 100 kPa

Structure (SMILES): CC[n+]1ccn(C)c1.O=S(=O)([N-]S(=O)(=O)C(F)(F)F)C(F)(F)F + CCCC[n+]1ccn(C)c1.CCOS(=O)(=O)[O-]
- mass density (x1 = 1): 1518.9 kg/m3

Structure (SMILES): CC[n+]1ccn(C)c1.O=S(=O)([N-]S(=O)(=O)C(F)(F)F)C(F)(F)F + CCOS(=O)(=O)[O-].CC[n+]1ccn(C)c1
- mass density (x1 = 0.2008): 1305.7 kg/m3
- mass density (x1 = 0.4356): 1376.8 kg/m3
- mass density (x1 = 0.494): 1393.3 kg/m3
- mass density (x1 = 0.5982): 1421.8 kg/m3
- mass density (x1 = 0.6996): 1448 kg/m3
- mass density (x1 = 0.8): 1472.9 kg/m3
- mass density (x1 = 0.9025): 1496.9 kg/m3
- mass density (x1 = 1): 1518.9 kg/m3

Structure (SMILES): CCCC[n+]1ccn(C)c1.CCOS(=O)(=O)[O-] + CC[n+]1ccn(C)c1.O=S(=O)([N-]S(=O)(=O)C(F)(F)F)C(F)(F)F
- mass density (x2 = 0.1009): 1189.5 kg/m3
- mass density (x2 = 0.2031): 1227.6 kg/m3
- mass density (x2 = 0.2951): 1261.6 kg/m3
- mass density (x2 = 0.4027): 1301.5 kg/m3
- mass density (x2 = 0.5989): 1373.5 kg/m3
- mass density (x2 = 0.8024): 1447.5 kg/m3
- mass density (x2 = 0.8996): 1482.6 kg/m3
